Experimental findings from PubChem BioAssay AID1240 (Sanford-Burnham Center for Chemical Genomics, 2008) are described below.

About 800 (1.6%) of roughly 50,000 compounds showed an effect of 50% or more. Some of the results follow.

The test concerns the target Bcl-2-like protein 10 (Homo sapiens) (UniProt Q9HD36). The test is described as follows: Phenotype converters, Bcl-B/TR3 peptide binding displacement, primary biochemical FP (AID 1240).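 Also: 0% = Bcl-B with tracer peptide and DMSO and 100% = tracer peptide lacking Bcl-B.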 As to conditions: GST-Bcl-B / FITC-TR3 peptide fluorescence polarization; stronger effect = higher value; compound at 3.75 mg/L. Background: In fluorescence polarisation assays a small probe gives low polarisation when free and higher when bound to something large.
Chain of UniProt Q9HD36 (Q9HD36 whole entry, looked up): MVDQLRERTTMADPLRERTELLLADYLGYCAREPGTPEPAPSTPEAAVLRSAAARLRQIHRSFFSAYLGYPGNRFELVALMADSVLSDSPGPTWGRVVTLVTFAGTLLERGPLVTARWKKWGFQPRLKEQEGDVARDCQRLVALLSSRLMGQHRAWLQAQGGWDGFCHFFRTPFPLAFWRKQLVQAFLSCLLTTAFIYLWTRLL
Regarding `O=S(=O)(c1ccc(-c2csc(Nc3ccc(F)cc3)n2)cc1)N1CCOCC1`, the displacement stood at 11.5%.
Take `CC1(C)C(=O)N(Cc2ccccc2)c2ccccc2N1C(=O)c1ccc(Cl)cc1`: the displacement was found to be 3%.
In the case of `CC(C)c1ccc(N2C(=O)NC(=O)/C(=C/c3ccc(O)c(Br)c3)C2=O)cc1`, the displacement is -17.8%.
For `COC(=O)c1ccc(C(=O)OC)c(NS(=O)(=O)c2cc(Cl)ccc2Cl)c1`, the displacement is -10.3%.
`CN(C)c1ccc(NC(=O)/C=C/c2ccccc2Cl)cc1`: the displacement was 3.2%.
For `Cc1ccc(-c2nc3cc(NCc4ccc5c(c4)OCO5)ccc3o2)cc1`, the displacement was -6.3%.
Then `Clc1ccc(/C=N/N=C(c2ccccc2)c2ccccc2)s1`, with 3.6%; and `Cc1ccc(C(=O)c2coc3c2C(=O)c2ccccc2C3=O)cc1`, with -9.6%; and `N#Cc1ccc(-c2cc(C(=O)O)c3c(ccc4ccccc43)n2)cc1`, with -1.7%.
For `COc1ccc(C(=O)/C=C/c2ccc3c(c2)OCO3)cc1OC`, the displacement was 2.1%.
For `CCOC(=O)c1c(N)sc(C(=O)NC2CCCCC2)c1C`, the displacement came out at 5.3%.
Turning to `Cc1ccc(O)c(Nc2c([N+](=O)[O-])c(=O)oc3ccccc23)c1`, the displacement came to 12.4%.
For the compound `CC1CCN(C(=O)CSCc2cccc(Br)c2)CC1`, the displacement is -0.7%.
Next, `Cc1ccc(OCC(=O)N2CCCc3ccccc32)c(C)c1`: 6%; `CCOc1ccc(C(=O)Nc2cc(-c3nc4ccc(C)cc4o3)ccc2Cl)cc1[N+](=O)[O-]`: 2.3%.
On to `COC(=O)c1c(-c2ccc(F)cc2)csc1NC(=O)CCC(=O)O`, for which the displacement is 13.5%.
`CCCOc1cccc(C(=O)Nc2cccc(C(=O)Nc3ccccc3C(=O)O)c2)c1`: the displacement was 10.7%.
On to `Fc1ccc(NC(=S)NCc2cccnc2)cc1`, for which the displacement was -6.5%.
Next, `Cc1nn(C(=O)CCN2C(=O)c3ccccc3C2=O)c(C)c1Br`: -3.9%; `COc1ccccc1/C=C/C=N/NC(=O)c1cc(-c2ccc(C)cc2)n[nH]1`: -11.4%.
Next, `CCc1c(C)c2cc([N+](=O)[O-])c(O)c(C)c2oc1=O`: -6%; `COc1ccc(OC)c(/C=C2\NC(=S)N(c3ccccc3)C2=O)c1`: 62.3%; `O=C1OC(c2ccccc2)=N/C1=C/c1ccc(-c2cccc([N+](=O)[O-])c2)o1`: -4.6%.
For `COc1cccc(/C=C2\C(=O)NN(c3ccccc3)C2=O)c1OC`, the displacement was -9.4%.
With `O=C(N=Nc1c(O)[nH]c2ccc([N+](=O)[O-])cc12)c1ccc2c(c1)OCO2`, the displacement came out at 75.1%.
Turning to `CC1CCc2c(sc(NC(=O)c3ccccc3Cl)c2C(=O)N2CCCCCC2)C1` (centres undefined), the displacement was -7.1%.
As for `CC1C(c2ccc(Cl)cc2)NC(c2ccc(Cl)cc2)C(C)C1O` (centres undefined), the displacement is -18.1%.
On to `O=C(O)c1ccc(N2C(=O)CC(NC3CCN(Cc4ccccc4)CC3)C2=O)cc1` (centres undefined), for which the displacement stood at 3.2%.
In the case of `COc1ccccc1/C=N/NC(=O)CSc1nc2ccccc2n1Cc1ccccc1`, the displacement was 4%.
